Measurements taken from article PMC4336329 (PLoS ONE, 2015).
About 14,000 (4.5%) of roughly 310,000 compounds showed an effect of 50% or more. Effects have a minus sign here. Some of the results follow.

target: human ether-à-go-go-related gene (hERG) potassium channel (human, UniProt Q12809); assay: primary screen, population patch clamp on CHO cells stably expressing hERG
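Also: peak tail current of the secondary pulse compared with the same well before compound.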

human ether-à-go-go-related gene (hERG) potassium channel, sequence (Q12809 whole entry, looked up): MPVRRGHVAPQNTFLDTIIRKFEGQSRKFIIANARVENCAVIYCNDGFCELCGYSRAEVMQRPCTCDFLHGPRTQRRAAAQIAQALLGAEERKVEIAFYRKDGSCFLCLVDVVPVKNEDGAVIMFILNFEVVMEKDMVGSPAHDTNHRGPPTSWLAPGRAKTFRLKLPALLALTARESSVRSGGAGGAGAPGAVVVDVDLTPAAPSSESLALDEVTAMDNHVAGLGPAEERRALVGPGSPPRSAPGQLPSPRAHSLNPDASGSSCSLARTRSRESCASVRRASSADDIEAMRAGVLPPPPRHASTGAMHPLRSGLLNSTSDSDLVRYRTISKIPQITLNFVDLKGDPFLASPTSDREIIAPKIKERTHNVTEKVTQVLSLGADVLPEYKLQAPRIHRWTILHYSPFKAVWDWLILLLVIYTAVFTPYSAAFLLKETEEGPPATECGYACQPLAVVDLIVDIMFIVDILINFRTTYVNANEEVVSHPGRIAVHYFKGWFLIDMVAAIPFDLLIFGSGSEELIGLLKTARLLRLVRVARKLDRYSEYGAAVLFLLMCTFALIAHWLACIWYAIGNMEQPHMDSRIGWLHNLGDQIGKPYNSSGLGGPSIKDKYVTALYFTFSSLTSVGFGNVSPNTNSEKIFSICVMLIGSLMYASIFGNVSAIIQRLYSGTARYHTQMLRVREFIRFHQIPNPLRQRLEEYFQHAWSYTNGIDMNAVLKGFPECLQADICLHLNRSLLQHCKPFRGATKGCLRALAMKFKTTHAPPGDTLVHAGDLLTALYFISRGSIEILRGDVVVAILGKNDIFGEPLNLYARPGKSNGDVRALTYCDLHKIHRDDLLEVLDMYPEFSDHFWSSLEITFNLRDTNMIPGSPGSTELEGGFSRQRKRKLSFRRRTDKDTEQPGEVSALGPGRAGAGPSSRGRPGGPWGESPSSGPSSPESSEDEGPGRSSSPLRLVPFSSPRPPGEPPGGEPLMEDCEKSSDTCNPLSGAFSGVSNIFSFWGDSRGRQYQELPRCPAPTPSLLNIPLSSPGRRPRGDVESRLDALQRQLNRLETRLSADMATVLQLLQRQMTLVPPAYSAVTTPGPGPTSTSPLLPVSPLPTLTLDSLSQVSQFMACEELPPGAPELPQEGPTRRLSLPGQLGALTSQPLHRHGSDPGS

Structure (SMILES) | hERG current change (%, negative = inhibition) at 10uM [%]
CCn1c(O)c(C2=NCCCC2)c2ccccc21 | 0.0486
COc1ccc(OC)c2c1sc(=NC(=O)C1COc3ccccc3O1)n2C (stereo not drawn) | -0.698
CCOc1ccc(C2C(C#N)=C(N)SC(N)=C2C#N)cc1OCC | 13.5
O=C(NC(=O)N1CCCCCC1)c1ccc(Cl)cc1 | 0.216
O=C(Nc1ccc(S(=O)(=O)N2CCCCC2)cc1)C1CC(=O)N(c2ccccc2)C1 (stereo not drawn) | 20.8
O=C(NCCc1c[nH]c2ccccc12)C(=O)NCC(c1ccco1)N1CCN(c2ccccc2)CC1 (stereo not drawn) | -12.4
Cc1cc(OC(C)C)nc(-c2ccccc2O)n1 | -1.33
COCCN(C(=O)CSc1nnc2cc(C)c3ccccc3n12)c1c(N)n(Cc2ccccc2)c(=O)[nH]c1=O | 7.09
CCOC(=O)C1=C(N)Oc2cc(O)ccc2C1c1ccc([N+](=O)[O-])cc1 (stereo not drawn) | -45.5
CCn1cc(C(=O)Nc2cccc(C(=O)OC)c2)c(=O)c2ccc(C)nc21 | -2.32
COc1ccc(OCC(=O)NNC(=O)c2cccnc2)cc1 | 15.4
O=C(C[n+]1cccc(C(=O)Nc2ccccc2)c1)c1ccc([N+](=O)[O-])cc1.[Br-] | -73.1
Cc1ccccc1-c1cc(C(=O)NCc2cccs2)nn1CC1CC(c2cccc([N+](=O)[O-])c2)=NO1 (stereo not drawn) | 4.08
COc1cccc(CN(C(=O)Cc2c[nH]c3ccccc23)C(C(=O)NC2CCCCC2)c2ccc(C)o2)c1 (stereo not drawn) | 1.18
CCOc1ccc(OCC)c(NC(=O)CN(c2ccc(C)cc2)S(=O)(=O)c2c(C)noc2C)c1 | 3.31
CCOc1ccc(C(=O)OCC(=O)N2CCCC2)cc1 | 15.7
S=c1[nH]c(-c2ccccc2)cn1/N=C/c1ccccc1Br | 13.9
Cc1ccc(-c2nc(CSCC(=O)NCCCN3CCOCC3)c(C)o2)cc1 | 14.1
Cc1cc(C)n(-c2ccc(C(=O)NCC(c3ccco3)N3CCCC3)cc2)n1 (stereo not drawn) | -5.9
Cc1cc2cc(CCNC(=O)CCc3ccccc3)c(=O)[nH]c2cc1C | -1.76
Cc1nc2sc(C#N)c(N)c2c2c1CCCC2 | -5.25
Cc1nnc(SCC(=O)Nc2ccc(Cl)cn2)[nH]c1=O | 11.3
COc1c(Cl)cc(Cl)cc1C(=O)Nc1ccc(CN2CCOCC2)cc1 | 8.37

Structure (SMILES) | hERG current change (%, negative = inhibition) at 10uM [%]
O=C(c1cc(Sc2ccc(Cl)cc2)nc2ccccc12)N1CCN(c2ccccn2)CC1 | 7.61
C/C(=N/NC(=O)c1ccncc1)c1cc2ccc(O)cc2oc1=O | 13.2
O=C1CC(N2CCSCC2)C(=O)N1CCc1ccccc1 (stereo not drawn) | -1.37
CCn1c(SCc2nc3ccccc3[nH]2)nnc1-c1ccncc1 | 3.99
COCC(=O)N1CCCC(C(=O)c2ccc3c4c(cccc24)CC3)C1 (stereo not drawn) | -21.2
O=C(O)CSc1nnc(-c2ccc(Cl)cc2)n1-c1ccccc1 | 22.6
CCOC(=O)N1CCN(C(=O)c2ccc(-n3c(C)ccc3C)cc2)CC1 | -2.56
Nc1cc(=O)[nH]c(SCC(=O)N2N=C(c3ccc4ccccc4c3)CC2c2ccccc2)n1 (stereo not drawn) | 5.9
Cc1nn(C)cc1C(=O)NNC(=S)Nc1ccc(Cl)cc1 | 12.6
COc1cc(NC(=O)CNc2cccc(S(=O)(=O)N3CCCC3)c2)cc(OC)c1 | 5.86
Cc1c(Cl)cccc1NC(=O)Nn1cnnc1 | 19.6
COc1ccc(OC)c(-n2nnnc2SCC(=O)O)c1 | 8.49
CCn1cc(C(=O)NC(=S)Nc2ccccc2Br)cn1 | 3.21
O=C(CCCOc1ccc(Cl)cc1Cl)NCc1ccncc1 | -31.9
CCCn1c(SCC(=O)NC2CCCC(C)C2C)n[nH]c1=O (stereo not drawn) | 12.7
COc1cc(C)c(NC(=O)C(=S)NCc2ccccc2)cc1C | 23.3
O=C(O)c1cccc(-n2cc(-c3cccc(C(F)(F)F)c3)cn2)c1 | 27
Cc1ccc(-n2cccc2/C=C2\C(=N)N3N=C(c4ccco4)SC3=NC2=O)cc1 | 1.06
COCCNC(=O)c1ccc(C)cc1C | 18.5
CC(Sc1ccc(Cl)cc1)C(=O)N(C)CC(=O)Nc1ccc(N2CCOCC2)cc1 (stereo not drawn) | -49.8
O=C(/C=C\Nc1ccccn1)c1ccccc1 | -1.57
C/C(=N\Nc1nc2ccccc2s1)c1ccc(Br)s1 | 1.44
